The RNAGym collection of RNA variant scans (doi:10.1093/nar/gkz1192)
The source gives no read counts; variants with many changes may rest on few reads.

B1: CPEB3 Ribozyme (parent)
chain: UAACAGGGGGCCACAGCAGAAGCGUUCACGUCGCAGCCCCUGUCAGAUUCUGGUGAAUCUGCGAAUUCUGCUGUAUAUCUC

Variants of: B1
Test: self-cleavage, relative activity (ratio to wild type); higher = more cleavage; in vitro, sequencing
In short: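 Relative activity was defined as the cleaved/total read fraction for a variant divided by the same fraction for the unmutated ribozyme. CPEB3 self-cleaving ribozyme libraries were made by rounds of error-prone PCR, barcoded, and transcribed in vitro with T7 RNA polymerase for 5 hours at 37°C, and cleavage ran through transcription plus a 15 min DNase I step before EDTA. Illumina sequencing of template-switched reverse transcripts gave the reads, and DNA sequencing mapped the barcodes. Averages come from three batches, using variants with at least 5 reads.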

Variant	self-cleavage
A21G C38U U66C	0.97
A21G U25A U51C	0.18
A21G U49A U72C C81U	0.47
A21G A35U U43C U80A	0.21
A21G U25C A45C G46U	0.12
A21G C23A U31C U41A A64G G70C	0.05
A21G A35G U49C	0.3
A21U A35G C79G	1.28
A21G A45G U67C U72C	0.31
A21G C27U A47G A57G	0.07
A21C G22A C23A U41A A45G U74C U80C	0.09
A21G G30U U51C U76A A77U	0.1
A21U A45G U48C	0.04
A21U A28G U60C U66A	0.12
A21G U25A U41C A57G	0.07
A21G U31A A45G U51C U60C	0.26
A21G A45U U54C	0.12
A21G U48C U60A U80C	0.06
A21G U49C A57G	0.12
A21C U69C U72A	0.15
A21G U43A G61U U67C U78A	0.14

Variant	self-cleavage
A21G U41G U66C	0.1
A21G U43C U54A U60C U72C	0.03
A21C G36A U67C	0.08
A20U U48A U54A	0.2
A21G U31C A65G	0.25
G22C U66C U80A	0.13
A21G U25A U48C U69A U80A	0.05
A20U U48C U78C	0.12
A21G C50G A77U U78A	0.09
A21U U54C A64U U78C	0.1
A21G C32U U43A U54C A56G A57G U67C	0
A21G U25C U72C A75G	0.06
A21G C29U U41A	0.2
A21G U26C A28U A57G	0.08
G22A U43A U66C	0.27
A21G G24U A28U U43A U60C	0.11
A21G A35G U41C U69C	0.19
A21G C27A U49C U69C U76C	0.12
A21G C34U A47G	0.24
A20U U67A U72A	0.78
A21G G24A A28G A45G A56G	0.14

Variant	self-cleavage
A20U U43C U54C U69A	0.09
A21G U48C U72G	0.3
A21C C29U A57G U60C	0.05
A21G U25A C32A C37G G70A	0.05
A20U U43C U51C U60A U74C	0.17
A21U A28U U76C	0.18
A21G U43C U54C U60C U80A	0.2
A21G C27U A65G	0.1
A21G U25A U69C U78A C79A	0.08
A21G A28G A64G	0.2
A21G C44A U54G	0.25
A21G A56C A77G U78G	0.31
A20U U51A U66C	0.22
A21G U48C U54C	0.18
A21G A35G A45G	1.11
G22C U54C U69C	0.15
A21G U67A A75G	0.11
A21G U48C A57G	0.59
A21U U25C U58A	0.17
A20U U48A U60C	0.15
A21U G42A U43C U54A A57G	0.55

Variant	self-cleavage
A21U A35G C38U U49C U54C C62U	0.08
A21G A35U U49A A64G C71U	0.2
A21G U49C A57G U60C A65C	0.08
A21G A45U U49C G73A	0.21
A21G C38U U48C C62U	0.14
A21G U48C U49C U78A	0.35
A21G U51C A57G	0.24
A21G U25A G42A U49C	0.06
A21G U43C A45U G46C A57U	0.15
A21G U26C U78C	0.36
A21G A28G A45G	0.49
A21G C27A G33A U49C	0.17
A21G U25A A45C U74C	0.27
A21G U26C U43C	0.18
A21G G24C C32U A45G A56G U66C U69A	0.04
A21G U26A U51C	0.35
A21U U51G U74C A77G	0.56
A21U U26C U31G G33A	0.31
A20U U67G U69C	0.17
A21U U26C U72A G73C	0.06
